From the supplement of paper PMC11417369
Some of the results follow.

The sequences below were run on PfAP2-HC AP2 domain (GST-tagged) (assay: gcPBM binding intensity (ln(normalized median fluorescence intensity)); higher = stronger DNA binding).
Summary of the method: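 For binding intensity, the highest Masliner-normalised natural-log median intensity across replicate spots of either probe orientation was taken. Protein bound to the array was stained with Alexa488 anti-GST antibody and scanned at 488 nm. The protein, GST-tagged P. falciparum DNA-binding domains from E. coli at about 25 μg on average, had been applied for 1 h to an Agilent 4 × 180k array of primer-extended double-stranded 36-bp intergenic genomic probes and negative controls.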

| Sequence | gcPBM binding intensity (ln) |
| --- | --- |
| TAATATAATGATGCAGTGCATATGTTAAAATGAAAA | 9.89 |
| TCAAAAGAATAATTGGTGCAAATTATATAATATAAT [GTGCAC_site9804] | 9.66 |
| ATATTTATGGAAAAAGAACACACAATCAAACAAAAA [CACACA_site9233] | 10.3 |
| CTTTTTTATATCTCTACACACATTTATAACCATTTG [CACACA_site4897] | 10.1 |
| ACAAGGAATATATAAGATAATTTTAAATATAACACG [CACACA_negctrl_site1734] | 9.67 |
| ATATATATAATTTTTACACACGCAATAAATATATAT [CACACA_site218] | 9.79 |
| AGGAACATAAGCAATGTATAAACATAAAACTATAAT [CACACA_negctrl_site1832] | 9.88 |
| TAAAGAGAAAAACATACACACACAACAAAATATGTA [CACACA_site8872] | 10.2 |
| TATAAGGTGTCCTATACACACTCCAATAAATATATA [CACACA_site2091] | 9.57 |
| ATTTTTTTCTTAGGAGTGCACTTATATTTATTTTAT | 9.89 |
| TATTAATTAAACCATACACACATAACTTTTTTATAA [CACACA_site6526] | 9.82 |
| AAAAAAAAAAAAAACACACACACACCCACATATACA [CACACA_site2663] | 10.6 |
| AATCAAAATATATCTACACACATTTAAGTAACACAT [CACACA_site3482] | 9.96 |
| TTATAATAAAGAGGAGTGCAAAAAAAAAAAAAAAAA | 9.24 |
| TAAATATCAAAACACACACACAAAAGTGAATAAATA [CACACA_site3762] | 10.6 |
| ACTACAAGGCAATACAGTACATATAAATGTCATAAT [XGTACX_site8468] | 9.72 |
| TACCTTTTATTAATGTGTACCTAAAATATAATACTT [XGTACX_site192] | 9.68 |
| AAAAAGGTTATTGGTACACACATATGTATTTATATA [CACACA_site4464] | 9.86 |
| TAACAAAACCTTATATGTACACACATATACATCACA [XGTACX_site6772] | 10 |
| TTAAAAATGAACATATGTACATATATATATATATAT [XGTACX_site7923] | 10.1 |
| TTATCATTTTAAATCACACACATATATATATATATA [CACACA_site2849] | 9.92 |
| AATAATGAAGCTTATGCACACGTTCATTATTTATAT [CACACA_site5736] | 9.82 |
| ATAATTTTTTTTTTTTTTTTTTGAAAGTAGCATATG [CACACA_negctrl_site732] | 9.19 |
| AAAAGAATTACTTTCACACATATATATCTGTAAATA [CACACA_site5798] | 9.59 |
| TACATATTTATATACACACACACCCTAAAAATATAT [CACACA_site6861] | 10.2 |
